Hit rate of the full screen: of about 310,000 compounds, about 14,000 (4.5%) showed an effect of 50% or more. The effect is printed as a negative number. This is one part of the list.
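Also: peak tail current of the secondary pulse compared with the same well before compound.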

The target in this test is human ether-à-go-go-related gene (hERG) potassium channel (human, UniProt Q12809). Put plainly: primary screen, population patch clamp on CHO cells stably expressing hERG.
human ether-à-go-go-related gene (hERG) potassium channel, sequence (Q12809 whole entry, looked up): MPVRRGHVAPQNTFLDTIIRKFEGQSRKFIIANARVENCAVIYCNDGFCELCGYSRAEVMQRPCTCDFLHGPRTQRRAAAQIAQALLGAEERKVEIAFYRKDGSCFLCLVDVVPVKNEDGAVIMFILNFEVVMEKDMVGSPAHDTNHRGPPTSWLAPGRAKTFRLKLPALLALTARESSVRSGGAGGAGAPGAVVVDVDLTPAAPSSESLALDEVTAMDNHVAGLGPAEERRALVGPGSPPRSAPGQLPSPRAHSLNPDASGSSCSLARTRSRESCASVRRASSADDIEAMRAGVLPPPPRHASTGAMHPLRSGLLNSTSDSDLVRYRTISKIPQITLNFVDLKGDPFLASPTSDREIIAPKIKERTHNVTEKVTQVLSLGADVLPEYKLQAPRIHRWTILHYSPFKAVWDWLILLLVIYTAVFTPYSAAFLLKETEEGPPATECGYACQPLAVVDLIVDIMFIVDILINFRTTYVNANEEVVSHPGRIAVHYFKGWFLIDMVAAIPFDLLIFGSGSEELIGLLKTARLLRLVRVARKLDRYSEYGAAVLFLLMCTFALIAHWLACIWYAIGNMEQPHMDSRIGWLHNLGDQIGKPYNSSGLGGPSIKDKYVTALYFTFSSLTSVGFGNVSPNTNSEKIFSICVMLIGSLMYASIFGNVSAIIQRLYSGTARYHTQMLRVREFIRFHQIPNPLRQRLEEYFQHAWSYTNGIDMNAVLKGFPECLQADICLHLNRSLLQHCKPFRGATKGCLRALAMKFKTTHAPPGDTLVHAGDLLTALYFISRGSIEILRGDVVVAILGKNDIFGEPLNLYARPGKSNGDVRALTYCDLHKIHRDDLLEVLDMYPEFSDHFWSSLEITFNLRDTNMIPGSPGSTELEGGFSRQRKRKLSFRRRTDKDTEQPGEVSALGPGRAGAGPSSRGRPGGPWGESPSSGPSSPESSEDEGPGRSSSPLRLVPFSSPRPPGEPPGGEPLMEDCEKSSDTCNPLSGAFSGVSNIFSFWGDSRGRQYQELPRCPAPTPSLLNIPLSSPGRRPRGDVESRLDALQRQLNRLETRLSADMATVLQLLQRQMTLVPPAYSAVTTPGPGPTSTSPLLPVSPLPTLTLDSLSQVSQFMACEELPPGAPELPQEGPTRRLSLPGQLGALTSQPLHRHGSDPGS
As to `O=C(Nc1cccc(Cl)c1)NC1CC2CCC(C1)N2Cc1ccco1` (stereo not shown), the “hERG current change (%, negative = inhibition) at 10uM” value was -10.5%.

`Cc1nnc(SCC(=O)Nc2cc(S(=O)(=O)N3CCCC3)ccc2Cl)s1`: the “hERG current change (%, negative = inhibition) at 10uM” value is recorded as -7.16%.

As to `CC(C)OC(=O)CSc1nnc(CNc2ccc(Cl)cc2)n1Cc1ccccc1`, the “hERG current change (%, negative = inhibition) at 10uM” value is given as -33%.

Regarding `O=C(COC(=O)C1CC1)NC(=O)NCc1ccccc1`, the “hERG current change (%, negative = inhibition) at 10uM” value is reported as 22.6%.

Turning to `C/C(=C\c1cc2ccccc2o1)C1Nc2cccc3cccc(c23)N1`, the “hERG current change (%, negative = inhibition) at 10uM” value is recorded as 9.36%.

`Cc1c(Cl)cccc1NC(=O)CNC(=O)Cc1c[nH]c2ccccc12`: the “hERG current change (%, negative = inhibition) at 10uM” value turned out to be 0.839%.

Consider `Cc1cc(Cl)ccc1OCC(=O)N1CCCCC1`, for which the “hERG current change (%, negative = inhibition) at 10uM” value is -0.846%.

With `COc1ccc(-c2nc3ccc(C(=O)NCCCN4CCOCC4)cc3nc2-c2ccc(OC)cc2)cc1`, the “hERG current change (%, negative = inhibition) at 10uM” value amounted to 9.44%.

In the case of `Cl.Clc1ccccc1CSC1=NCCCN1`, the “hERG current change (%, negative = inhibition) at 10uM” value worked out at 0.0434%.

For the compound `CC(NC(=O)c1ccco1)C(c1cccs1)N1CCN(c2ccccc2)CC1` (stereo not shown), the “hERG current change (%, negative = inhibition) at 10uM” value is -21.3%.

Take `Cc1ccccc1CC(=O)Nc1cccc(S(=O)(=O)N2CCCC2)c1`: the “hERG current change (%, negative = inhibition) at 10uM” value is reported as -3.62%.

`O=C(O)c1ccc(S(=O)(=O)N(Cc2ccccc2)Cc2ccccc2)cc1`: the “hERG current change (%, negative = inhibition) at 10uM” value worked out at 12%.

`COc1ccc(C(C)=O)c2c(O)cccc12`: the “hERG current change (%, negative = inhibition) at 10uM” value is given as -2.9%.

In the case of `CCC(C)(C(=O)NC1CCCCC1)N(Cc1cccs1)C(=O)c1ccccn1` (stereo not shown), the “hERG current change (%, negative = inhibition) at 10uM” value amounted to 3.38%.

On to `COc1ccc2oc(C(=O)OCC(=O)Nc3ccccc3OC)c(C)c2c1`, for which the “hERG current change (%, negative = inhibition) at 10uM” value is listed as 7.07%.

As to `O=C(O)CCN1C(=O)C2CCCCC2C1=O` (stereo not shown), the “hERG current change (%, negative = inhibition) at 10uM” value came out at 6.28%.

Turning to `CC1CCN(CCCNC(=O)c2ccc3c(=O)n(Cc4ccc(Cl)cc4)c(=S)[nH]c3c2)CC1`, the “hERG current change (%, negative = inhibition) at 10uM” value was -68.4%.

For the compound `CCOC(=O)c1nnc(-c2ccc(C)cc2)nc1N1CCSCC1`, the “hERG current change (%, negative = inhibition) at 10uM” value is -35%.

`CN1CCN(c2ccc(NC(=O)c3ccccc3)cc2)CC1`: the “hERG current change (%, negative = inhibition) at 10uM” value was -0.717%.

As for `CCCc1nc2nc(C)c(NS(=O)(=O)c3ccc(Cl)cc3)c(=O)n2[nH]1`, the “hERG current change (%, negative = inhibition) at 10uM” value was found to be 17.4%.

For `Cc1cc(C)n2nc(C(=O)N3CCOCC3)nc2n1`, the “hERG current change (%, negative = inhibition) at 10uM” value stood at 8.2%.

Turning to `Cc1cc(C)c(C)c(OCC(=O)O/N=C(\N)c2cccnc2)c1`, the “hERG current change (%, negative = inhibition) at 10uM” value amounted to 4.71%.

`Cc1cc(C(F)(F)F)nn1CC(=O)N1CCOCC1`: the “hERG current change (%, negative = inhibition) at 10uM” value was -7.96%.

Take `O=C1CC(C(=O)Nc2cccc(F)c2)n2ncnc2N1` (stereo not shown): the “hERG current change (%, negative = inhibition) at 10uM” value was 7.95%.

Take `COc1ccccc1/C=C/C(=O)NNC(=O)c1cc(C)oc1C`: the “hERG current change (%, negative = inhibition) at 10uM” value is listed as -1.1%.

Take `O=C1NC(=O)C(Cc2cccs2)C(=O)N1`: the “hERG current change (%, negative = inhibition) at 10uM” value is -1.48%.

`CCOC(=O)c1c(C)oc(NC(=O)CCl)c1C(=O)OCC`: the “hERG current change (%, negative = inhibition) at 10uM” value turned out to be 6.84%.

Regarding `CC(=O)Nc1ccccc1C(=O)C(=O)Nc1cccc(C(=O)NC2CC2)c1`, the “hERG current change (%, negative = inhibition) at 10uM” value is given as -2.48%.

For the compound `CCOc1cc(N2CCOCC2)c(OCC)cc1NC(=O)COc1cccc(CC)c1`, the “hERG current change (%, negative = inhibition) at 10uM” value came to 17.9%.

Consider `CC(C)CN1CCN=C1N(C)C`, for which the “hERG current change (%, negative = inhibition) at 10uM” value stood at 15.5%.

As for `CCCCCn1c(=O)c(C(=O)OCC)c(O)c2ccccc21`, the “hERG current change (%, negative = inhibition) at 10uM” value is -64%.

As for `COc1ccccc1N1CCN(CCCNC(=O)C2CCCN(c3ncnc4c3nc3n4CCCCC3)C2)CC1` (stereo not shown), the “hERG current change (%, negative = inhibition) at 10uM” value is given as -40.3%.

On to `O=C(N/C(=C/c1cccs1)C(=O)N1CCCC1)c1ccccc1`, for which the “hERG current change (%, negative = inhibition) at 10uM” value is given as 6.44%.

As for `O=C(Nc1ccccc1-c1ccccc1)NC1CCN(C(=O)N2CCOCC2)CC1`, the “hERG current change (%, negative = inhibition) at 10uM” value is listed as 6.43%.

Take `COc1ccc(C(=O)N2CCN(S(=O)(=O)c3ccc(C)cc3)CC2)cc1S(=O)(=O)N1CCOCC1`: the “hERG current change (%, negative = inhibition) at 10uM” value was -5.59%.

For `CCN(CC(=O)Nc1ccc(OC)cc1)C(=O)CCc1nc2ccccc2c(=O)[nH]1`, the “hERG current change (%, negative = inhibition) at 10uM” value is on record as -6.11%.

Consider `Cc1ccc(NC(=O)CN2C(=O)C3CC=C(Cl)CC3C2=O)cc1` (stereo not shown), for which the “hERG current change (%, negative = inhibition) at 10uM” value is -4.45%.

As for `O=S(=O)(Cc1ccccc1Cl)NCCc1ccc(F)cc1`, the “hERG current change (%, negative = inhibition) at 10uM” value is reported as 9.08%.

For `CCN(CC)CCN1C(=O)C2C(C(=O)Nc3ccc(Br)cc3)C3C=CC2(O3)C1C(=O)NC1CCCCC1` (stereo not shown), the “hERG current change (%, negative = inhibition) at 10uM” value is -36.5%.

With `N#Cc1ncn(-c2ccc(Oc3ccccc3)cc2)c1N`, the “hERG current change (%, negative = inhibition) at 10uM” value is recorded as -21%.

For `CN(Cc1cnccn1)Cc1nc(Cc2cccc(F)c2)no1`, the “hERG current change (%, negative = inhibition) at 10uM” value is 6.67%.

Consider `CCOc1ncccc1C(=O)OCC(=O)N1CCN(S(=O)(=O)c2ccc(Cl)cc2)CC1`, for which the “hERG current change (%, negative = inhibition) at 10uM” value is on record as -7.08%.

As to `CCCCc1nc(NCC2CCCO2)c(C#N)c2c1COC(C)(C)C2` (stereo not shown), the “hERG current change (%, negative = inhibition) at 10uM” value is reported as 0.983%.

`CN(C)c1cccc(C(=O)OCCCC(=O)c2ccc(F)cc2)c1`: the “hERG current change (%, negative = inhibition) at 10uM” value is listed as -19.1%.

In the case of `CCOc1ccc(NC(=O)N2CCC(NC(=O)c3ccco3)CC2)cc1`, the “hERG current change (%, negative = inhibition) at 10uM” value is recorded as -14.4%.

For `C/C=C\C=C/C(=O)Nc1cccc(C2=NOC3(C2)C[C@H](C(N)=O)N(C(=O)c2ccc(OC)cc2)C3)c1` (stereo partly shown), the “hERG current change (%, negative = inhibition) at 10uM” value was 11.1%.

For the compound `CCOC(=O)c1c(NC(=S)Nc2cc([N+](=O)[O-])ccc2OC)sc2c1CCCCC2`, the “hERG current change (%, negative = inhibition) at 10uM” value is -4.16%.

As to `CC(C)S(=O)(=O)c1csc(C(=O)Nc2ccc(F)cc2)c1N`, the “hERG current change (%, negative = inhibition) at 10uM” value is reported as -12%.

Take `CCOCC(=O)Nc1cc(Cl)c(OC)cc1OC`: the “hERG current change (%, negative = inhibition) at 10uM” value was 9.61%.

For the compound `O=C(NCc1cccnc1)C1CCCN(S(=O)(=O)c2cccc3nsnc23)C1` (stereo not shown), the “hERG current change (%, negative = inhibition) at 10uM” value is given as -21.2%.

With `COc1ccc(C(=O)NCN2CCN(c3ccccc3)CC2)cc1OC`, the “hERG current change (%, negative = inhibition) at 10uM” value was determined as 2.97%.

In the case of `Cl.Fc1ccc(COc2ccc(Br)cc2CNCc2ccncc2)cc1`, the “hERG current change (%, negative = inhibition) at 10uM” value is on record as -74.7%.

Consider `O=C(NC1CC1)C1Nc2ccc(OC(F)(F)F)cc2C2C=CCC12` (stereo not shown), for which the “hERG current change (%, negative = inhibition) at 10uM” value is recorded as -4.94%.

`Cc1ccc(C2CCN(C(=S)NC3CCCCC3)C2)cc1` (stereo not shown): the “hERG current change (%, negative = inhibition) at 10uM” value is -5.82%.

As for `Cc1c(NC(=O)CCC2CCCCC2)c(=O)n(-c2ccccc2)n1C`, the “hERG current change (%, negative = inhibition) at 10uM” value is -6.47%.

Take `O=C(c1ccccc1F)N1CCCC(c2ccccc2)C1` (stereo not shown): the “hERG current change (%, negative = inhibition) at 10uM” value was 16.7%.

Take `Cc1ccc(S(=O)(=O)N2CCN(C(=O)COC(=O)c3ccc([N+](=O)[O-])o3)CC2)c(C)c1`: the “hERG current change (%, negative = inhibition) at 10uM” value is reported as -17.6%.

Take `CCC1CCC/C1=N\NC(=O)c1ccccc1Cl` (stereo not shown): the “hERG current change (%, negative = inhibition) at 10uM” value came out at 19.2%.

For the origin of these results see PMC4336329 (PLoS ONE, 2015).
